This is one part of the list.

The labels stand for the following.
B1: 96689512_96691227_115_3pUTR_ENSMUSG00000038615_ENSMUST00000081775|mouse|control|control (ssRNA)
RNA: GGGAGUUCUACAGUCCGACGAUCUUACCAGGGGGGUUUCCAGAGAACCCCGCUGCUGAGGUCACAGUCUGUCGCUGCCGCCACAGCAGGCCCUCAGCCCAAGUCCCGGCCUCGCCACCGCCGCCGUCGCCGCCACCUCCGGCCCAACAGAGGAUUGAGCAUCA
B2: chr16:42174308:42174309:+_ENSMUSG00000061080_ENSMUST00000099761|mus_hu|motif|central (ssRNA)
RNA: GGGAGUUCUACAGUCCGACGAUCUAUUCUGUGUGACGCAUUUUUGUGUGUUUUUUAAAUUAUUUUUAAAUUUUUAUUCGGUUAACAUUUGCUGAGAAGGCAGAGCAGAGAUGCUGCCAGCAGCCACAGUGGUACGGCCAGACUCAACAGAGGAUUGAGCAUCA
B3: chr11:77336104:77336105:-_ENSG00000074201_ENST00000525064|hu_mus|hu_hu_hu_mus_False|28_58 (ssRNA)
RNA: GGGAGUUCUACAGUCCGACGAUCCUCACACAUUGCUGUGAACAUCGCCUCCAAUGCUGACUUAUCACUGGGCACAAAUCUAAAUUCAGAAAUGGGUUCAACAUCAUCAUCACUGUCCUCAUCUUCAUCAGAGAGAGGUUCUUUCAACAGAGGAUUGAGCAUCA
B4: 140542959_140548134_232_3pUTR_ENSMUSG00000036622_ENSMUST00000037055|mouse|control|control (ssRNA)
RNA: GGGAGUUCUACAGUCCGACGAUCGAAGCUGAGGAGCUGAGGGGAUCGAUUGACGUCCCUGUCGUCAGGGUCCCAUAGCUGGGGGGCGUGCUGCCCAUGAGCAGGCUGCUGUCUGCGCUCAUUUCGGCUCCUCGCGCUCAUCGCCAACAGAGGAUUGAGCAUCA
B5: 13400300_13412261_3633_CDS_ENSMUSG00000020576_ENSMUST00000042953|mouse|control|control (ssRNA)
RNA: GGGAGUUCUACAGUCCGACGAUCUUCAAGAUACCCCAGGGCUUGAAUGAGGUCUAAUUCCUCCUGAAUGGCAGCCGGCCUGUCCGUUAUAAGCUGUAAGCAGCACCUGGCCAAAUCCAUGCAGCUGUCAGUGAGGUUGGUGGACAACAGAGGAUUGAGCAUCA
B6: chr15:96529919:96529920:-_ENSMUSG00000022462_ENSMUST00000023099|mus_mus|FALSE|FALSE (ssRNA)
RNA: GGGAGUUCUACAGUCCGACGAUCCCACCUCACGGCAGCGUCUCCCGUGGGCUGUCUCGGUCACACACCAGAAUUGUAAAACGAGGGAAAAAAUGUAACAGUGACGGAGUCCUUUUCUUUUAUUUUUUUUAAUAAAAAAUUUUUCAACAGAGGAUUGAGCAUCA
B7: 115634494_115634614_4909_3pUTR_ENSG00000148158_ENST00000374232|human|control|control (ssRNA)
RNA: GGGAGUUCUACAGUCCGACGAUCACUCUGGAUGUUCCUCGGGCUGCCAUCCCAAAAUUCCACUUGCAGACUGCCACAUGGUCAUCGUGCCCUCCUCUAAAGCAGAACUUCCUGUUAUUUGAUCACAAAAGGCAGCCUCACAAGCAACAGAGGAUUGAGCAUCA
B8: chr2:232320318:232320319:-_ENSG00000115053_ENST00000322723|hu_hu|hu_hu_hu_mus_True|48_58 (ssRNA)
RNA: GGGAGUUCUACAGUCCGACGAUCACUAUUAAAGUCUACAAAACCAAACCCUUUGGAAGAACCAGUUUCCCGAUCAGUAACUAUCCUUGCCCGAACGGAGCCCUCAAAUGAUUCUUUUAAGGUCUCUUCAGUGGUAUCCUCAGACAACAGAGGAUUGAGCAUCA
B9: chr14:102359341:102359342:+_ENSG00000078304_ENST00000445439|hu_mus|motif|central (ssRNA)
RNA: GGGAGUUCUACAGUCCGACGAUCCUUCAGUGGUAAGGCAAAUCCAUUAAUUAUACUUCCCAGGAUCUCCAGUAACUCCGCGGUGCCAUUGUGAUGCUCUGUCUCAUAGAUAAACCUAUAAAAUAUAUUAUUGAUCUGUUUCCUCAACAGAGGAUUGAGCAUCA
B10: chr6:57703266:57703267:-_ENSMUSG00000037788_ENSMUST00000114297|mus_mus|FALSE|FALSE (ssRNA)
RNA: GGGAGUUCUACAGUCCGACGAUCCUGAUUUUCUCAUUUACAAUGUCAGCCCCCUUCCUUGCAGCCCCACUCCCCACCAUACUACAUAUAAAUAAUCUAGACAUCUUAGCUAUACUUCCUUGCUCUUAGUACACAAGGUCUCAACAACAGAGGAUUGAGCAUCA
B11: 21926265_21926385_571_CDS_ENSG00000121361_ENST00000240662|human|control|control (ssRNA)
RNA: GGGAGUUCUACAGUCCGACGAUCGGCCACCAGCCACCACAUGAUAGCGAAGAGCAGCCAGCUGCAGAGGAAGGACAUGGUAAAGAUGACCAGCGUGUGGCGCCAUUUCAGGUCCACCAAGGUGGUGAAGAUGUCCUGUAGAAACAACAGAGGAUUGAGCAUCA
B12: chr7:135612270:135612271:-_ENSG00000105887_ENST00000393085|hu_mus|hu_hu_hu_mus_False|8_78 (ssRNA)
RNA: GGGAGUUCUACAGUCCGACGAUCGUUUUUUUCUGAGAUGUUAAAUAGUACUUCAGUAACAAAACUUACUUAACCUUUUAUUAAUGCGUGUUGUACCAAAAGCAGACAUUUUAGCUUCAUUUAUUCACUCAAAAUAUCAUUAAGCAACAGAGGAUUGAGCAUCA
B13: chr11:9430111:9430112:+_ENSG00000205339_ENST00000379719|hu_mus|FALSE|FALSE (ssRNA)
RNA: GGGAGUUCUACAGUCCGACGAUCGUGGAUAAUGGCUUCUACAAUAUUUUCUCGAAUACAAUGCCGGUCUUCUUCUGGAAUAGUAUAUGGAGCGAUGUCCCCUGGUGUGGCUUCCCGAUCAGGCCAAUAUUGUGUUAUCAUAUUCAACAGAGGAUUGAGCAUCA
B14: chr18:56819859:56819860:+_ENSG00000166562_ENST00000588875|hu_mus|hu_hu_hu_mus_True|18_88 (ssRNA)
RNA: GGGAGUUCUACAGUCCGACGAUCAACCUUGAUUACUCUGUGAACUAUUGGAAUGUCUCUUCCUUCAACCUUAAAAACAACUAUUUCACCAGCUCUGAUGGGGUCCUCCCGGAAAUUUGUGAGGAACAGCAGAUCUCCUCUGUGCAACAGAGGAUUGAGCAUCA
B15: chr14:88400820:88400821:-_ENSG00000054983_ENST00000261304|hu_hu|motif|central (ssRNA)
RNA: GGGAGUUCUACAGUCCGACGAUCGAGCUACCUCAGUGUUAGCAGCAAGGCUUCGAGGUCUGUACUACUCAAACCACUCCGGAGGGUAUGGCCAAUGCACAGUUUGAAUGUUAGGGAACACACCAGGUAAUGUUAAAGAUUCACCAACAGAGGAUUGAGCAUCA
B16: 166768614_166769904_2691_CDS_ENSMUSG00000002718_ENSMUST00000002790|mouse|control|control (ssRNA)
RNA: GGGAGUUCUACAGUCCGACGAUCGCCAAUGAGAGAUUGUAACAAAGGAGUCCACAGCUUAGUGUACUCCGUGUCCAUCAUUGGUGGACACUCUGUGAGUAAUUUGGUUAUGCCAACUGCACAGAUUUUUUUCUCCACGUUCCCCAACAGAGGAUUGAGCAUCA
B17: chr2:179515052:179515053:+_ENSMUSG00000000305_ENSMUST00000000314|mus_hu|mus_mus_mus_hu_False|28_68 (ssRNA)
RNA: GGGAGUUCUACAGUCCGACGAUCGCUGUCCCAUGCAGUCACCGUGAACGCCACCUGCUCGGAGGGGAUCUUCAACUCCCGGGUGGCGAAGACUGUCCCAUCUGCCCCGACUUUGAAGUCCAUGCUGUUGGUCUCAUAUUGUGUCAACAGAGGAUUGAGCAUCA
B18: chr1:33855670:33855671:-_ENSMUSG00000042197_ENSMUST00000044455|mus_mus|motif|central (ssRNA)
RNA: GGGAGUUCUACAGUCCGACGAUCAUUAAGAAGGAGUACAUUUAAAUAGUGCAAUUGUACAGGUGAUAAAGGUAACAAACGGAGAGUAAAUCACUGUACAAACGUUACAUAAAUACCACAUCAAAGGCUAGGUCUUAAACGUAACAACAGAGGAUUGAGCAUCA
B19: 145239222_145239342_111_3pUTR_ENSMUSG00000074182_ENSMUST00000098534|mouse|control|control (ssRNA)
RNA: GGGAGUUCUACAGUCCGACGAUCGCAGAUUCCAUGAGCUCACGAGCCUAGGCCGAAGCUGCCACUCCGUUCUUCACGGUGGCACCACCAAGCCAAUAAGAGAGAUUACCAAACGAACCGCCGACAGCGCCACACGUGCAGCAACAACAGAGGAUUGAGCAUCA
B20: chr7:141441981:141441982:+_ENSG00000106028_ENST00000265304|hu_mus|hu_hu_hu_mus_False|78_88 (ssRNA)
RNA: GGGAGUUCUACAGUCCGACGAUCCUCAUGUCUUACAAACUGACGAAGUACCUGUAAUACAGGUCUUCGAAACAUGGCUUCUGUUUUUCUUACAACCUAAUCUUUAGGCUUUUCCUAAAGGAAAGAAAGAAAAGAGAAAAAUGACAACAGAGGAUUGAGCAUCA
B21: chr16:94651144:94651145:+_ENSMUSG00000040785_ENSMUST00000117648|mus_hu|mus_mus_mus_hu_True|68_68 (ssRNA)
RNA: GGGAGUUCUACAGUCCGACGAUCAUUUUCUUGAAUCAAGUGGCGAAUAACAUAGUCCACUGCUUCAUGGACAAAAUUUCUGCUAGAAAAACAGGUUGUAUAGUCUUCUGUGCUCAAAACUUUCCAAGAAAGCAAUUCUUUGAGCAACAGAGGAUUGAGCAUCA
B22: chr5:92956547:92956548:-_ENSG00000113391_ENST00000395965|hu_hu|FALSE|FALSE (ssRNA)
RNA: GGGAGUUCUACAGUCCGACGAUCCCAGUGAACCCAUAUUGCUUUGACAGUUGCACUCAUCUAGAAAUAAUGCAAAACGCUAUUUAGAUGUAUAUAUCACGACCCUGGGCUCUGGGAAGAAAACAAUCUAAUGAGGGGCUGGGACAACAGAGGAUUGAGCAUCA

This experiment has as its target T1, UNK ZnF1-3 (human, UniProt Q9C0B0 31-174).
T1 sequence: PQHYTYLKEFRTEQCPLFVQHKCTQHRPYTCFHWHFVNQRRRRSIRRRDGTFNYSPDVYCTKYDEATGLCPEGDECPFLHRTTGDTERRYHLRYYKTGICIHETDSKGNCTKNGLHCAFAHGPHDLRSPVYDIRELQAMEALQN
In words: nsRBNS (natural sequence RNA bind-n-seq); RBNS binding buffer (assumed for nsRBNS): 25 mM Tris pH 7.5, 150 mM KCl, 3 mM MgCl2, 0.01% Triton X-100, 500 ug/ml BSA, 20 U/ml SUPERase-In, 4 C; UNK is unkempt and MSI1 is Musashi-1; names of the RNAs are library labels; protein concentration not given here; high values mean tight binding.
Consider B1, for which the binding signal came out at 0.741 enrichment R.

Turning to B2, the binding signal was 1.96 enrichment R. Then B3, with 1.11 enrichment R; and B4, with 0.437 enrichment R; and B5, with 0.996 enrichment R. Then B6, with 1.44 enrichment R; and B7, with 0.644 enrichment R; and B8, with 0.599 enrichment R. The figure for B9 is 1.47 enrichment R; for B10 it is 1.27 enrichment R; for B11 it is 1.12 enrichment R. Turning to B12, the binding signal stood at 0.53 enrichment R. Then B13, with 0.912 enrichment R; and B14, with 0.848 enrichment R; and B15, with 1.23 enrichment R. Then B16, with 0.941 enrichment R; and B17, with 0.611 enrichment R.

Molecule B18 came in with a binding signal of 0.827 enrichment R. B19 showed a binding signal of 1.23 enrichment R. In turn, B20 yielded a binding signal of 0.573 enrichment R. Then B21, with 0.519 enrichment R; and B22, with 1.46 enrichment R.
